Test results reported in the supplement of paper PMC3334620.
Whole data set: some 33,000 sequences, median “E-score (-0.5 to 0.5)” near -0.012, cut for the highest 2% near 0.29. This is one part of the list.

biological target: T1, Ybr033w (UniProt P38073); experiment: PBM E-score (8-mer binding enrichment) (E-score (-0.5 to 0.5)); higher = stronger / more preferred TF binding; most listed sequences are background and not binding sites; details: protein concentration: 200 nM; construct: GST-full length
T1 sequence: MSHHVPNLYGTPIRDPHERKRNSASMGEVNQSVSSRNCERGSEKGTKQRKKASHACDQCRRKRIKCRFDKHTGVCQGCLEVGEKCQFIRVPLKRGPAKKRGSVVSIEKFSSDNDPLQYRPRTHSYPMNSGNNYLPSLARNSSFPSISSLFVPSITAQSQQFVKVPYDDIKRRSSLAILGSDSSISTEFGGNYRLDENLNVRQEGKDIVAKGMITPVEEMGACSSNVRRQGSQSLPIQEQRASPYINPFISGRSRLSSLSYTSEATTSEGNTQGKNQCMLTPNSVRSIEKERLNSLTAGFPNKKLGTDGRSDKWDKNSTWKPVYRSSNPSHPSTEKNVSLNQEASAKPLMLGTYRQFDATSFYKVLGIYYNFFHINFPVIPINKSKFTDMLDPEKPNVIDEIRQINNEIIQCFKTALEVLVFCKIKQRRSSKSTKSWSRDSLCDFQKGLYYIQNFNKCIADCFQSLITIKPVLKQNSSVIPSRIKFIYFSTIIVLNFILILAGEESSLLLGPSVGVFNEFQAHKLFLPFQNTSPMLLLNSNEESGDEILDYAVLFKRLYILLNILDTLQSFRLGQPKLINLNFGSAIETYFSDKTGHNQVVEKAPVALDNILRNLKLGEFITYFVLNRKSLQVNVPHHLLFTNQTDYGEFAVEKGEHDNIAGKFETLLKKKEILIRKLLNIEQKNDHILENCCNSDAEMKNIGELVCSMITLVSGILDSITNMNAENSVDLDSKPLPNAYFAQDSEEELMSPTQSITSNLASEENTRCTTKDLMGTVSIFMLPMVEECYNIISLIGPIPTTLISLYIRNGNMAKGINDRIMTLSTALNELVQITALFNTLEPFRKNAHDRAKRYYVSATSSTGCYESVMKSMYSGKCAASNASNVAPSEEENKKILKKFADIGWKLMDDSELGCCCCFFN
Method: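 Universal 'all 10-mer' protein binding microarrays (Agilent AMADID 015681) probed with GST-tagged S. cerevisiae TFs (full-length or DBD) made by in vitro transcription/translation (PURExpress), about 100-200 nM. Bound TF was detected with fluorescent anti-GST. Each ungapped 8-mer (which stands for itself and its reverse complement) is scored by the PBM enrichment score (E-score), a modified Wilcoxon-Mann-Whitney statistic from -0.5 to +0.5, computed with the Universal PBM Analysis Suite. Scale: above 0.35 generally sequence-specific binding.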

| Sequence | PBM E-score |
| --- | --- |
| CCGACCTA | -0.0189 |
| GAAACTGA | -0.185 |
| GCACTCCC | -0.13 |
| ATCGAGAT | -0.00279 |
| TCGGTCAA | 0.00935 |
| CGTCGCTA | -0.0271 |
| CGCCTTGA | -0.188 |
| CGCAACTA | 0.16 |
| CCGTTCCA | -0.0333 |
| TCTGACAA | 0.191 |
| AGCTATTA | 0.0432 |
| ATAATTCA | 0.241 |
| GAAGGCGC | -0.244 |
| GAGCCTAA | 0.0041 |
| TGCCGTAA | -0.0769 |
| CAAGAACC | 0.137 |
| CGTTAACG | -0.204 |
| ACAGTTAG | 0.118 |
| AGAGTGTG | -0.0636 |
| GACTCGTA | 0.0838 |
| ACACATAG | -0.0312 |
| CAATCCAG | 0.033 |
| CTTTACGC | 0.0935 |
| CACTATGG | -0.124 |
| CAAAGCGG | -0.0457 |

| Sequence | PBM E-score |
| --- | --- |
| AGCGTCAT | -0.0481 |
| ACCTAAAC | 0.0549 |
| CCCATACA | -0.206 |
| ATGCCTGG | -0.193 |
| ACTTGCAT | 0.146 |
| GCTACGTA | 0.164 |
| ACAGCGGG | -0.0581 |
| ATTGCAGC | -0.142 |
| CATAGGAC | -0.0275 |
| CAGAACGA | 0.0764 |
| AGATCGCC | -0.165 |
| ATCCTAGC | 0.0772 |
| AGAAACCA | 0.1 |
| GGGGAAAA | 0.208 |
| CGGCTGCA | -0.134 |
| GTTCTACA | -0.0278 |
| ATCGGTTA | 0.187 |
| GCCACCGC | -0.243 |
| GAAGAAAA | 0.238 |
| CTTTATTC | 0.192 |
| CCCTGGCC | -0.236 |
| CGACCTAA | 0.216 |
| CGAGTCTC | -0.177 |
| GTTTATAA | 0.162 |
| CATAGTCA | 0.0728 |

| Sequence | PBM E-score |
| --- | --- |
| CAAGATTG | 0.141 |
| CCTGCAGG | -0.352 |
| ACCCGTGC | -0.254 |
| CACCCCTC | -0.157 |
| ATAACTAC | 0.112 |
| AGAAGAGG | -0.111 |
| CATTTTGA | 0.152 |
| CGCTTAAA | 0.00456 |
| CGACCCCG | -0.33 |
| AGACTACG | -0.182 |
| AAATATAG | 0.305 |
| GCATACAC | 0.00233 |
| GAGGCTCA | -0.271 |
| CTCCCAGC | -0.306 |
| CCTTTATC | -0.00208 |
| TAAGGATA | 0.191 |
| ATTATTCA | 0.231 |
| GCTGGGAA | 0.0395 |
| ATCTCTCA | 0.241 |
| TAAGTGTA | 0.139 |
| TTAGCCAA | -0.00909 |
| TAACAGAA | 0.212 |
| CGCACCCC | -0.273 |
| CGTTCGCA | -0.0102 |
| CCGGGTAG | 0.0639 |

| Sequence | PBM E-score |
| --- | --- |
| CGTAACGA | -0.0743 |
| ACTGCGGC | -0.0387 |
| TATCTTCA | 0.149 |
| CGGAATAG | 0.126 |
| CGGTTGCC | -0.0518 |
| AATGTTAG | 0.0264 |
| CACAAGCG | -0.127 |
| GCTCCTGA | -0.202 |
| GAGAGAAC | -0.0888 |
| CGCAGGGC | -0.114 |
| ACTGGAAT | 0.262 |
| ACGGCCAC | -0.0796 |
| ATGGTTGA | 0.0977 |
| CACAACTA | 0.211 |
| CTCACAAA | 0.21 |
| AATTCAGG | 0.09 |
| CGCGTGGC | -0.292 |
| GGTGCTAA | 0.108 |
| AATCAATG | 0.189 |
| AATCTACG | -0.0149 |
| GTGTGAGA | 0.0206 |
| CAGTGTAC | -0.0838 |
| TAACAATA | 0.273 |
| GATCTTGA | -0.00031 |
| AAGCGCCG | -0.027 |

| Sequence | PBM E-score |
| --- | --- |
| CCAACAAC | 0.00586 |
| GGACGAAA | -0.104 |
| AAAGTTGA | 0.116 |
| CCTCTACA | -0.166 |
| ATGTTTGG | -0.035 |
| AGGCTCAC | -0.218 |
| CACTTAAA | 0.104 |
| AGCATTTC | 0.106 |
| GACCCCCC | -0.327 |
| ATACTTCG | 0.0341 |
| CTTCGGAA | 0.243 |
| TAAAAGCA | 0.00415 |
| AGGCCACC | -0.229 |
| TCTTGGAA | 0.221 |
| AGAATAAT | 0.163 |
| CATAATAC | 0.0785 |
| TCAAAGAA | 0.141 |
| ATTCTAGC | 0.0909 |
| CAGATATG | -0.0501 |
| GTGGGTTA | -0.14 |
| ATACTAAT | 0.184 |
| GAAGGGTA | 0.121 |
| GCATTGGA | 0.0503 |
| GCCATGCC | -0.0922 |
| CATTACGC | -0.142 |

| Sequence | PBM E-score |
| --- | --- |
| ATGTGGGC | -0.0747 |
| CACAGCTA | -0.066 |
| CGATAGGA | 0.0895 |
| ACGGACGG | -0.225 |
| GCTCCAGA | -0.152 |
| AATCCCAC | 0.0588 |
| CGTCGCCC | -0.312 |
| CCCCAGCC | -0.152 |
| ATAAGCAT | -0.064 |
| CAAGATAC | 0.151 |
| CAGGTGGG | -0.0846 |
| ATGGAAGA | 0.268 |
| ATGTATAA | 0.0359 |
| AAGCGATG | -0.212 |
| TGGGCCAA | -0.142 |
| GAAAACAA | 0.115 |
| GGAGATTA | 0.148 |
| CTATCTCC | -0.0881 |
| AGCCGACA | -0.166 |
| TGAACGCA | 0.0921 |
| CGGTGATC | -0.194 |
| AATCTTCG | 0.0477 |
| ACGGCTGA | -0.132 |
| AATCCTCC | 0.0532 |
| CCTTCTTC | -0.064 |

| Sequence | PBM E-score |
| --- | --- |
| AGCGACAC | -0.0516 |
| AACTGTCG | 0.0332 |
| CTGGTAAG | 0.121 |
| ACATATTA | 0.349 |
| AAGAGGAA | 0.095 |
| AGGTTTGA | -0.0546 |
| ATGTGTGG | -0.00406 |
| GGCGGTAC | -0.334 |
| GATGCGCA | 0.0311 |
| TCAGCGCA | -0.129 |
| GGAGCGTA | 0.057 |
| ACAAATAT | 0.287 |
| TCTCTCAA | 0.238 |
| AGACAACA | -0.0111 |
| AAGACACC | -0.146 |
| ATTAGTCC | 0.203 |
| AAACTAAC | 0.274 |
| ACTCGTTA | 0.0584 |
| AGCACCGG | -0.174 |
| GGTGTAGA | -0.188 |
| GCCTGGCA | -0.354 |
| ATCTCCAC | 0.0486 |
